In publication PMC9911399, “Two distinct binding modes provide the RNA-binding protein RbFox with extraordinary sequence specificity” one finds binding signal data, which are given here for 20 molecules.

The labels stand for the following.
T1: RBFOX1 RRM (Homo sapiens, UniProt Q9NWB1 109-208)
T1 sequence: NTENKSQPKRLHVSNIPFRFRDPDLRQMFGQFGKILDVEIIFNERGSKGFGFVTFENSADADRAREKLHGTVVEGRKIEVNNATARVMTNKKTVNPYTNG

B1: AUCCCGU (DNA:RNA)
RNA: GGGAGACCGGAAUUCAGAUUGUCCAUCCCGUUUAAAUCCCGUCGUAGCCACCA
DNA 1: CAATCTGAATTCCGGTCTCCC
DNA 2: TGGTGGCTACGACGGGATT
B2: CACAGUA (DNA:RNA)
RNA: B1 RNA with A25C, U26A, C28A, C29G, G30U, U31A
DNA 1: CAATCTGAATTCCGGTCTCCC
DNA 2: TGGTGGCTACGACGGGATT
B3: CGCAGAG (DNA:RNA)
RNA: B1 RNA with A25C, U26G, C28A, C29G, G30A, U31G
DNA 1: CAATCTGAATTCCGGTCTCCC
DNA 2: TGGTGGCTACGACGGGATT
B4: GCGAAAG (DNA:RNA)
RNA: GGGAGACCGGAAUUCAGAUUGUCCGCGAAAGUUAAAUCCCGUCGUAGCCACCA
DNA 1: CAATCTGAATTCCGGTCTCCC
DNA 2: TGGTGGCTACGACGGGATT
B5: AGAAAUG (DNA:RNA)
RNA: B4 RNA with G25A, C26G, G27A, A30U
DNA 1: CAATCTGAATTCCGGTCTCCC
DNA 2: TGGTGGCTACGACGGGATT
B6: UUCCCCC (DNA:RNA)
RNA: B1 RNA with A25U, G30C, U31C
DNA 1: CAATCTGAATTCCGGTCTCCC
DNA 2: TGGTGGCTACGACGGGATT
B7: CCUGCCU (DNA:RNA)
RNA: B1 RNA with A25C, U26C, C27U, C28G, G30C
DNA 1: CAATCTGAATTCCGGTCTCCC
DNA 2: TGGTGGCTACGACGGGATT
B8: CUGACCC (DNA:RNA)
RNA: B1 RNA with A25C, C27G, C28A, G30C, U31C
DNA 1: CAATCTGAATTCCGGTCTCCC
DNA 2: TGGTGGCTACGACGGGATT
B9: CGAUCGA (DNA:RNA)
RNA: B1 RNA with A25C, U26G, C27A, C28U, U31A
DNA 1: CAATCTGAATTCCGGTCTCCC
DNA 2: TGGTGGCTACGACGGGATT
B10: GCUGUGG (DNA:RNA)
RNA: B4 RNA with G27U, A28G, A29U, A30G
DNA 1: CAATCTGAATTCCGGTCTCCC
DNA 2: TGGTGGCTACGACGGGATT
B11: GCGCUCG (DNA:RNA)
RNA: B4 RNA with A28C, A29U, A30C
DNA 1: CAATCTGAATTCCGGTCTCCC
DNA 2: TGGTGGCTACGACGGGATT
B12: AUCGGGC (DNA:RNA)
RNA: B1 RNA with C28G, C29G, U31C
DNA 1: CAATCTGAATTCCGGTCTCCC
DNA 2: TGGTGGCTACGACGGGATT
B13: CUGAUGG (DNA:RNA)
RNA: B4 RNA with G25C, C26U, A29U, A30G
DNA 1: CAATCTGAATTCCGGTCTCCC
DNA 2: TGGTGGCTACGACGGGATT
B14: GAGUUCG (DNA:RNA)
RNA: B4 RNA with C26A, A28U, A29U, A30C
DNA 1: CAATCTGAATTCCGGTCTCCC
DNA 2: TGGTGGCTACGACGGGATT
B15: CUCCUUA (DNA:RNA)
RNA: B1 RNA with A25C, C29U, G30U, U31A
DNA 1: CAATCTGAATTCCGGTCTCCC
DNA 2: TGGTGGCTACGACGGGATT
B16: GUCACUC (DNA:RNA)
RNA: B1 RNA with A25G, C28A, G30U, U31C
DNA 1: CAATCTGAATTCCGGTCTCCC
DNA 2: TGGTGGCTACGACGGGATT
B17: ACUCAGU (DNA:RNA)
RNA: B1 RNA with U26C, C27U, C29A
DNA 1: CAATCTGAATTCCGGTCTCCC
DNA 2: TGGTGGCTACGACGGGATT
B18: AUGCCAU (DNA:RNA)
RNA: B1 RNA with C27G, G30A
DNA 1: CAATCTGAATTCCGGTCTCCC
DNA 2: TGGTGGCTACGACGGGATT
B19: UCACUUU (DNA:RNA)
RNA: B1 RNA with A25U, U26C, C27A, C29U, G30U
DNA 1: CAATCTGAATTCCGGTCTCCC
DNA 2: TGGTGGCTACGACGGGATT
B20: GUCGCGG (DNA:RNA)
RNA: B1 RNA with A25G, C28G, U31G
DNA 1: CAATCTGAATTCCGGTCTCCC
DNA 2: TGGTGGCTACGACGGGATT

Residue numbers refer to the chain shown, from its start. Some of the results follow.

The experiment deals with T1, RBFOX1 RRM. In words: EMSA; HiTS-Eq, 1 nM pool, 10 min; buffer printed only for the single-RNA assays: 10 mM Tris pH 7.5, 150 mM NaCl, 3.4 mM EDTA, 0.001% NP-40, 30 C. The settings on record: tags: His6 N-terminal (pET28a); label: 5' 32P. The gist of the method:
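Relative association constants, normalised to the cognate motif, were derived by comparing read counts of each RNA species with those of the control reaction. The RNA sequenced was the free fraction, separated by 8% native PAGE after a 10 min equilibration in 50 µL of 1 nM 5′-radiolabelled RNA (7 randomized nucleotides) with increasing concentrations of purified wild-type or mutant RbFox RRM.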
(Mobility shift assays separate free from complexed probe on a gel.)
Take B1: the binding signal was 0.00434 KA relative to UGCAUGU. Consider B2, for which the binding signal was 0.00127 KA relative to UGCAUGU. Take B3: the binding signal was 0.0114 KA relative to UGCAUGU. Consider B4, for which the binding signal is 0.0143 KA relative to UGCAUGU.

For the molecule B5, the binding signal is 0.0139 KA relative to UGCAUGU.

For B6, the binding signal is 0.00547 KA relative to UGCAUGU.

Take B7: the binding signal is 0.0189 KA relative to UGCAUGU.

For B8, the binding signal is 0.00393 KA relative to UGCAUGU. Turning to B9, the binding signal was 0.0185 KA relative to UGCAUGU. In the case of B10, the binding signal is 0.0191 KA relative to UGCAUGU. B11: the binding signal is 0.0293 KA relative to UGCAUGU.

Take B12: the binding signal is 0.00891 KA relative to UGCAUGU. Take B13: the binding signal is 0.0123 KA relative to UGCAUGU. The result for B14 reads 0.0167 KA relative to UGCAUGU. On to B15, for which the binding signal is 0.00211 KA relative to UGCAUGU. The result for B16 reads 0.00729 KA relative to UGCAUGU; that for B17, 0.00847 KA relative to UGCAUGU. Regarding B18, the binding signal is 0.00302 KA relative to UGCAUGU.

With B19, the binding signal is 0.00698 KA relative to UGCAUGU. Turning to B20, the binding signal is 0.0154 KA relative to UGCAUGU.
